The record followed here is article PMC4336329 (PLoS ONE, 2015).

Screen size: about 310,000 compounds; about 2,200 (0.71%) showed an effect of 50% or more. The effect is printed as a negative number. Some of the results follow.

The target in the experiment is human ether-à-go-go-related gene (hERG) potassium channel (human, UniProt Q12809). The experiment is described as follows: primary screen, population patch clamp on CHO cells stably expressing hERG.
Chain of human ether-à-go-go-related gene (hERG) potassium channel (Q12809 whole entry, looked up): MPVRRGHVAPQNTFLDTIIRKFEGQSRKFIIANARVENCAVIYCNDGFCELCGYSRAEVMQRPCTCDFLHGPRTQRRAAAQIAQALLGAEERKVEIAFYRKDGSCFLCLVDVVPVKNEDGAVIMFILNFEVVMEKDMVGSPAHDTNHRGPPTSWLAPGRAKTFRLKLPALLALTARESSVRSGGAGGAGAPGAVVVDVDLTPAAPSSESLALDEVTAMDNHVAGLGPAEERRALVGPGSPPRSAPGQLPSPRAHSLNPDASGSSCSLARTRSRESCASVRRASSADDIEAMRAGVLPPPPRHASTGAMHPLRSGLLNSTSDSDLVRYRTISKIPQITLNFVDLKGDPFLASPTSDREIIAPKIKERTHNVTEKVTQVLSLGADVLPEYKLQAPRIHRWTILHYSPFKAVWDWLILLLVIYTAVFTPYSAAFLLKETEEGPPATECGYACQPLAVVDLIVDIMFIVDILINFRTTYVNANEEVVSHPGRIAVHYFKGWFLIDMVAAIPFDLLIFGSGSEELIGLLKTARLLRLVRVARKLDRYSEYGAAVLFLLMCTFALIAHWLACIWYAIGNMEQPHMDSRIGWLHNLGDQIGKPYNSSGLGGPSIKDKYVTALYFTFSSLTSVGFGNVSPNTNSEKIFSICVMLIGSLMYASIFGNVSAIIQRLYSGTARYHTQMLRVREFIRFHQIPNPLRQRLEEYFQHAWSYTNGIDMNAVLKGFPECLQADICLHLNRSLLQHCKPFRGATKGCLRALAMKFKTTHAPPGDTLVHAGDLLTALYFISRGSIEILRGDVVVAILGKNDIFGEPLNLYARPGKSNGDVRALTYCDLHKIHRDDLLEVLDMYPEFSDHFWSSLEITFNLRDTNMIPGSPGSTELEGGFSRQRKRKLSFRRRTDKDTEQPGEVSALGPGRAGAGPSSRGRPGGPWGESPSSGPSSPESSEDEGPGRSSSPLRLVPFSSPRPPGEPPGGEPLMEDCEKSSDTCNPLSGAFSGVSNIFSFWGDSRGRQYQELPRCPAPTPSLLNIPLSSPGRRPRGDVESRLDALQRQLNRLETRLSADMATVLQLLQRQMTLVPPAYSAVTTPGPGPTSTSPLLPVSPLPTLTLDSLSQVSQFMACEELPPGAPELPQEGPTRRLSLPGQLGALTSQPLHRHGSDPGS
On to `O=c1c2ccccc2c(-c2n[nH]c(=S)o2)nn1Cc1ccccc1`, for which the “hERG current change (%, negative = inhibition) at 1uM” value stood at 21.9%.
Turning to `CC(C)(C)OC(=O)Nc1ccc([C@@H](NC(=O)OC(C)(C)C)C(=O)OC(C)(C)C)cc1`, the “hERG current change (%, negative = inhibition) at 1uM” value came out at 12.7%.
Turning to `Cc1ccc(OCC(=O)Nc2nnc(S(=O)(=O)N3CCCCCC3)s2)cc1C`, the “hERG current change (%, negative = inhibition) at 1uM” value came out at 14.7%.
`c1c2c(cc3sc(N4CCCCC4)nc13)OCCO2`: the “hERG current change (%, negative = inhibition) at 1uM” value is reported as 8.59%.
Then `COc1ccc(N2CCN(C(=O)Cn3nnc(-c4ccc(OC)c(OC)c4)n3)CC2)cc1`, with 9.91%; and `Cc1cccc(OCC(=O)NCc2nc(-c3ccccc3)no2)c1`, with 17.3%.
`Cc1ccc(OCC(O)Cn2c(=N)n(Cc3ccccc3)c3ccccc32)cc1.Cl` (centres unmarked): the “hERG current change (%, negative = inhibition) at 1uM” value was -61%.
Consider `CNC(=S)N/N=C/c1cccc(OCc2ccccc2F)c1`, for which the “hERG current change (%, negative = inhibition) at 1uM” value is reported as 15.4%.
Then `COCCN(C(=O)CSc1nncn1-c1ccccc1)c1c(N)n(Cc2ccccc2)c(=O)[nH]c1=O`, with 13.6%.
With `O=C(NCc1ccc2c(c1)OCO2)c1ccc2c(c1)OCO2`, the “hERG current change (%, negative = inhibition) at 1uM” value was determined as 9.66%.
Consider `Cc1cc(C(=O)CN2C(=O)C(=O)N(Cc3ccccc3)C2=O)c(C)n1-c1ccccc1F`, for which the “hERG current change (%, negative = inhibition) at 1uM” value worked out at 12.3%.
`CCc1ccc(CN2CCCC(C(=O)Nc3ccccc3-c3ccc(OC)cc3)C2)o1` (centres unmarked): the “hERG current change (%, negative = inhibition) at 1uM” value was 5.8%.
In the case of `CCCCCCn1c(CN2CCN(C)CC2)nc2c1c(=O)n(C)c(=O)n2C`, the “hERG current change (%, negative = inhibition) at 1uM” value is -41.8%.
Consider `O=C(COc1ccc(/C=N/NS(=O)(=O)c2ccccc2)cc1)N1CCOCC1`, for which the “hERG current change (%, negative = inhibition) at 1uM” value stood at 10.6%.
For the compound `O=c1ccc(-c2ccc(S(=O)(=O)Nc3cccc(Br)c3)o2)n[nH]1`, the “hERG current change (%, negative = inhibition) at 1uM” value stood at 14.2%.
`CCOC(=O)C1CCN(C(=O)CN2C(=O)CSc3ccc(S(=O)(=O)N4CCOCC4)cc32)CC1`: the “hERG current change (%, negative = inhibition) at 1uM” value is 2.95%.
As for `Cc1ccc(CNc2nc3ccccc3n2C)o1`, the “hERG current change (%, negative = inhibition) at 1uM” value is 11%.
With `Cc1ccc(C2(c3noc(CN4CCC(C(=O)N5CCOCC5)CC4)n3)CCCC2)cc1`, the “hERG current change (%, negative = inhibition) at 1uM” value was found to be 7.32%.
Consider `CN(C)c1ccc(NC(=O)c2cccc([N+](=O)[O-])c2)c2ccccc12`, for which the “hERG current change (%, negative = inhibition) at 1uM” value was determined as 6.21%.
Take `COC(=O)C[n+]1cccc2ccccc21.[Cl-]`: the “hERG current change (%, negative = inhibition) at 1uM” value is given as 18.8%.
As for `CC1CCc2c(sc(NS(=O)(=O)c3ccccc3)c2C(=O)OC(C)C)C1` (centres unmarked), the “hERG current change (%, negative = inhibition) at 1uM” value amounted to 9.63%.
Then `COc1ccc(NC(=O)Cn2cnc3c(cnn3-c3ccc(C)c(C)c3)c2=O)c(OC)c1`, with 0.499%; and `O=C(CSc1ccc(-c2ccco2)nn1)N1CCCCCC1`, with 4.91%.
The figure for `CC1CCCC(C)N1CCNC(=O)CCc1nnc2n(Cc3ccccc3)c(=O)c3ccccc3n12` (centres unmarked) is -11.2%; for `NC(=O)C(=O)NN=C1CCC(c2ccccc2)CC1` (centres unmarked) it is 12.8%.
For the compound `CCC(=O)N1CCc2cc(S(=O)(=O)CCC(=O)N3CCN(c4ccc(F)cc4)CC3)ccc21`, the “hERG current change (%, negative = inhibition) at 1uM” value was 5.02%.
Turning to `COC(=O)CCC(=O)NC1CC(C)(C)Cc2c1cnn2-c1ccc(F)cc1` (centres unmarked), the “hERG current change (%, negative = inhibition) at 1uM” value is given as -8.41%.
Then `COc1ccc(Cl)cc1N(C(C)C(=O)O)S(C)(=O)=O` (centres unmarked), with 10%.
With `COc1cc(F)cc(C2=CC(=O)C[C@H](c3ccc(F)cc3)C2)c1`, the “hERG current change (%, negative = inhibition) at 1uM” value is reported as 8.53%.
With `COc1ccc(NC(=O)[C@@H]2CCCN2C(=O)[C@@H]2Cc3ccccc3CN2C(=O)OC(C)(C)C)cc1`, the “hERG current change (%, negative = inhibition) at 1uM” value is reported as 15.3%.
`NC(=O)c1cccnc1`: the “hERG current change (%, negative = inhibition) at 1uM” value came out at 17.6%.
`C/C(=N\NC(=O)C(C)Oc1ccc([N+](=O)[O-])cc1)c1ccccn1` (centres unmarked): the “hERG current change (%, negative = inhibition) at 1uM” value is listed as 3.15%.
As to `Cc1ccc(C)c(OCc2cc(C(=O)N3CC[C@H](O)C3)no2)c1`, the “hERG current change (%, negative = inhibition) at 1uM” value is 16.8%.
In the case of `CCc1nc2ccc(C(=O)NCCc3ccco3)cc2nc1CC`, the “hERG current change (%, negative = inhibition) at 1uM” value amounted to 22.3%.
Regarding `Cc1ccc(P(=O)(CC(=O)O)c2ccc(C)cc2)cc1`, the “hERG current change (%, negative = inhibition) at 1uM” value is listed as -6.62%.
Consider `COc1ccc(-c2ccc(SCC(=O)NCC3CCCO3)nn2)cc1OC` (centres unmarked), for which the “hERG current change (%, negative = inhibition) at 1uM” value was 15.9%.
As to `O=C(CNC(=O)c1cccc(Cl)c1)N/N=C/c1cccnc1`, the “hERG current change (%, negative = inhibition) at 1uM” value is 16.3%.
As to `COc1ccc(S(=O)(=O)N(Cc2ccccc2)Cc2nc(-c3ccccc3)no2)cc1`, the “hERG current change (%, negative = inhibition) at 1uM” value turned out to be 6.95%.
With `CCc1noc(C)c1C(=O)N1CCCC(C(=O)c2ccc(OC)c(F)c2)C1` (centres unmarked), the “hERG current change (%, negative = inhibition) at 1uM” value came out at 5.78%.
As for `O=C(Nc1nccs1)c1ccc(S(=O)(=O)NCc2cccs2)cc1`, the “hERG current change (%, negative = inhibition) at 1uM” value stood at 0.141%.
For `CN(C)CCCNC(=O)/C=C/c1ccc(OCc2c(F)cccc2Cl)cc1`, the “hERG current change (%, negative = inhibition) at 1uM” value is -0.257%.
Take `COc1ccc(NC(=O)CN2CCC(C(=O)c3ccc(C)cc3)CC2)c(OC)c1`: the “hERG current change (%, negative = inhibition) at 1uM” value was -0.246%.
Regarding `O=C(CCNc1n[nH]c(=O)[nH]c1=O)N/N=C\c1ccc(Br)cc1`, the “hERG current change (%, negative = inhibition) at 1uM” value is listed as 1.58%.
For the compound `Cn1cccc1/C=C1\CCC/C(=C\c2cccn2C)C1=O`, the “hERG current change (%, negative = inhibition) at 1uM” value was 2.7%.
Regarding `O=C(Nc1ccc(Cl)cc1C(=O)Nc1ccncc1)c1ccco1`, the “hERG current change (%, negative = inhibition) at 1uM” value is reported as -13%.
The figure for `CCC(C)(C)NC(=O)c1ccc2c(c1)N(CC(=O)OC)C(=O)C(C)(C)O2` is -8.97%; for `O=C(C1=C(O)C(=O)N(CCN2CCOCC2)C1c1ccccn1)c1cccs1` (centres unmarked) it is 15%.
For the compound `CC(C)CC(c1nnnn1C(C)C)N1CCN(c2cccc(Cl)c2)CC1` (centres unmarked), the “hERG current change (%, negative = inhibition) at 1uM” value worked out at 11.1%.
For `CCOC(=O)CC(=O)Nc1ccc(C)cc1`, the “hERG current change (%, negative = inhibition) at 1uM” value was 6.4%.
Regarding `O=C(Nc1cccc([N+](=O)[O-])c1)c1cc(S(=O)(=O)Nc2ccccn2)ccc1Cl`, the “hERG current change (%, negative = inhibition) at 1uM” value is on record as -6.58%.
The figure for `CC(C)Cc1nnc(NC(=O)C2CCN(C(=O)c3ccc(F)cc3)CC2)s1` is -3.88%; for `Cc1nc(CN(C)C(=O)CC2C(=O)NCCN2Cc2ccc(F)cc2)cs1` (centres unmarked) it is 15.5%; for `O=C(Cn1c(=O)oc2cc(S(=O)(=O)NCc3ccccc3)ccc21)NCc1ccco1` it is 12.2%.
The figure for `CC(C)CNC(=O)Cn1nc(C(F)(F)F)c2c1CCCC2` is 4.01%; for `CC(C)(C)c1ccc(C(=O)Nc2ccc3c(c2)C(=O)NC3=O)cc1` it is 17%; for `COc1cc([C@@H]2CC=C(C(=O)O)[C@H](c3ccccc3)N2S(=O)(=O)c2ccc(C)cc2)cc(OC)c1OC` it is 17%.
Turning to `COc1cc2cc(CN(Cc3ccc4c(c3)OCO4)C(=O)c3ccco3)c(=O)[nH]c2cc1OC`, the “hERG current change (%, negative = inhibition) at 1uM” value was -9.98%.
For `O=C(Nc1ccc(NC(=O)c2sc3ccccc3c2Cl)cc1Cl)c1ccco1`, the “hERG current change (%, negative = inhibition) at 1uM” value amounted to 5.48%.
Turning to `CCOC(=O)c1cnc2ccccc2c1NCCO`, the “hERG current change (%, negative = inhibition) at 1uM” value is on record as -15.2%.
On to `CCn1c(SCC(N)=O)nnc1C(C)C`, for which the “hERG current change (%, negative = inhibition) at 1uM” value worked out at 15.1%.
Regarding `Cc1ccccc1N(CC(=O)N/N=C/c1cc(Br)c(C)o1)S(C)(=O)=O`, the “hERG current change (%, negative = inhibition) at 1uM” value turned out to be 0.398%.
For the compound `COc1ccc(-c2nc(SC(C)C(=O)Nc3ccc(NC(C)=O)cc3)n[nH]2)cc1` (centres unmarked), the “hERG current change (%, negative = inhibition) at 1uM” value was determined as 7.74%.
Then `CC(=O)N1CCOc2ccc(S(=O)(=O)NCCc3ccc(Cl)cc3)cc21`, with 15.4%; and `CC(C)(C)NC(=O)CCN(/N=C/c1ccccc1F)C1=NS(=O)(=O)c2ccccc21`, with 14.2%.
Consider `CCOc1cc(C(=O)Nc2cc3c(cc2N2CCCC2)n(C)c(=O)n3C)cc(OCC)c1OCC`, for which the “hERG current change (%, negative = inhibition) at 1uM” value came out at 9.85%.
On to `CC1CCCC(C)N1C(=O)COC(=O)c1cc(S(=O)(=O)N2CCOCC2)ccc1Cl` (centres unmarked), for which the “hERG current change (%, negative = inhibition) at 1uM” value is reported as -3.42%.
Then `Cc1cnc(CNC(=O)CC2C(=O)NCCN2Cc2ccccc2C(F)(F)F)cn1` (centres unmarked), with 13.7%; and `O=C(CSc1nc2ccccc2n1Cc1ccc(Cl)cc1)N/N=C/c1ccc(C(=O)O)cc1`, with 8.83%; and `COc1ccccc1C/C(N)=N/OC(=O)COc1cc(C)cc(C)c1C`, with -0.621%.
On to `CC(C)(C)N(Cc1ccccc1)C(=O)CSc1ncn[nH]1`, for which the “hERG current change (%, negative = inhibition) at 1uM” value turned out to be 14.2%.
For the compound `OCCC1CN(Cc2nc3ccccc3s2)CCN1C1CCCC1` (centres unmarked), the “hERG current change (%, negative = inhibition) at 1uM” value is given as -15.2%.
`N=c1c2c(-c3ccccc3)c(-c3ccccc3)oc2ncn1CCCN1CCOCC1`: the “hERG current change (%, negative = inhibition) at 1uM” value is on record as -84.5%.
Then `Cc1cc(C(=O)COc2ncnc3sccc23)c(C)n1C1CC1`, with 13.4%.
For the compound `COc1ccc(CCNCc2ccc(Br)cc2)cc1OC.O=C(O)C(=O)O`, the “hERG current change (%, negative = inhibition) at 1uM” value is recorded as -40.5%.
For the compound `C=C(C)COc1ccc2oc(C)c(C(=O)OCCOC)c2c1`, the “hERG current change (%, negative = inhibition) at 1uM” value turned out to be 20.6%.
The figure for `CC(=O)Nc1ccc(C(=O)Cn2nnc3ccccc3c2=O)cc1` is 7.25%; for `CCC(=O)N1CCN(c2cc(NCC3CCCO3)c(F)cc2[N+](=O)[O-])CC1` (centres unmarked) it is 20.9%; for `CN(C)Cc1c(O)ccc2c(=O)c(-c3ccc(Cl)cc3)coc12` it is 11.7%.
The figure for `COc1ccccc1C(=O)N1CCN(c2nc3cc(C)c(C)cc3cc2C#N)CC1` is 10.5%.
On to `Cc1cccc(Nc2ncc3c(n2)CC(C)CC3=O)c1` (centres unmarked), for which the “hERG current change (%, negative = inhibition) at 1uM” value came out at 7.18%.
As to `O=C(CSc1cccc[n+]1[O-])NCC1CCCCC1`, the “hERG current change (%, negative = inhibition) at 1uM” value is reported as 37.7%.
Take `COc1ccccc1/C=C/C=C1\Oc2c(ccc(O)c2CN2CCN(CCO)CC2)C1=O`: the “hERG current change (%, negative = inhibition) at 1uM” value was determined as 10%.
Take `COc1cc(NC(=O)CN2C(=O)c3ccccc3S2(=O)=O)c(OC)cc1Cl.Cl`: the “hERG current change (%, negative = inhibition) at 1uM” value came to 4.94%.
In the case of `COC(=O)C(C)Nc1cccc(Br)c1` (centres unmarked), the “hERG current change (%, negative = inhibition) at 1uM” value is reported as 9.09%.
As to `CCS(=O)(=O)Nc1ccccc1C(N)=O`, the “hERG current change (%, negative = inhibition) at 1uM” value stood at 19.6%.
For the compound `Br.C=CCN1C(c2ccc(OCC)cc2)=CS/C1=C(\C#N)c1nnc2n1CCCCC2`, the “hERG current change (%, negative = inhibition) at 1uM” value was -1.79%.
